PubChem BioAssay (NCATS)
Values joined by “and” are separate entries in the source; they are usually repeats but may differ in a detail not shown here. Identical values can stand only once. The inconclusive results got no clear call from the source; some entries with a clear call stand among them for comparison. For some of these results: Potencies beside an inconclusive call are fits to weak or partial responses and may not hold up. Active and inactive are the calls of the source. Unless noted, calls follow the shape of the dose curve; as a rule, active = well fitted curve in the direction sought with a large enough effect; inconclusive = small, poorly fitted or top-dose-only effect, or another doubt; inactive = no such curve, though single readings can be large; an effect the other way counts as inactive or inconclusive.

Experiments:
[1] = P-glycoprotein substrates identified in KB-8-5-11 adenocarcinoma cell line, qHTS therapeutic library screen (AID 1346987); also: nearly all actives have a fitted effect of over 65% in size; as to activity change, negative = cytotoxicity: % is scaled to controls: 0 for no effect and ±100 for the full control effect
Method in brief: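 In this qHTS, P-gp-rich KB-8-5-11 cells received library compounds across a concentration range. Viability was quantified by luminescence after 72 h at 37 degree C.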

[2] = biological target: Cytochrome P450 2D6 (Homo sapiens) (UniProt P10635); assay: Cytochrome P450 family 2 subfamily D member 6 (CYP2D6) small molecule antagonists: luciferase biochemical (cell-free) qHTS assay (AID 1645840; active = well fitted curve in the direction sought with a large enough effect in the repeat runs; inconclusive = weak or mixed curves; inactive = no such curve, though single readings can be large; an effect the other way counts as inactive or inconclusive; also: nearly all actives have a fitted effect of over 55% in size)
Method in brief: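 P450-Glo CYP2D6 system: proluciferin substrate converted by enzyme to luciferin, read by luminescence proportional to activity. Enzyme-substrate mix with compound 10 min at room temperature, then NADPH regeneration 1 h before detection reagent.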

[3] = Primary qHTS for inhibitors of nuclear receptor binding SET domain protein 2 (NSD2) in an isogenic RCH-ACV NSD2 p.E1099K mutant (9B) (AID 1645876); also: nearly all actives have a fitted effect of over 70% in size
[4] = Primary qHTS for inhibitors of nuclear receptor binding SET domain protein 2 (NSD2) in an RCH-ACV wild type WT cells (2C) (AID 1645877); conditions: activity change, negative = cell killing: at 44.9 µM (top of the series) unless noted; also: nearly all actives have a fitted effect of over 70% in size
[5] = system: HaCat; assay: Cytotoxic Profiling of Annotated Libraries Using Quantitative High-Throughput Screening (AID 1296008); conditions: Five cell lines viability, CellTiter-Glo ATP luminescence, 48-72 h; max response: stronger effect = lower value; also: nearly all actives have a fitted effect of over 60% in size
Method in brief: (§1)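 Cells exposed to compounds for 48 or 72 hr at 37 degrees Celsius. Viability read as ATP-coupled luminescence with CellTiter-Glo after 10 min at room temperature.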

[6] = system: CASKI; assay: Primary qHTS to identify gynecologic anti-cancer compounds using libraries of approved drugs and bioactive compounds (AID 1345084); conditions: Gynecologic cancer cell panel viability, ATPlite luminescence, 48 h; series mostly up to 57.5 µM; also: nearly all actives have a fitted effect of over 55% in size; as to activity change, negative = cytotoxicity: % is scaled to controls: 0 for no effect and ±100 for the full control effect
Method in brief: (§2)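 Luminescence from the ATPlite ATP-monitoring reagent indicates viable cell number; lower signal means cytotoxicity. Cells received compound 16 h after seeding and were exposed for 48 h across five concentrations.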

[7] = system: SKOV3; assay: as above; conditions: Gynecologic cancer cell panel viability, ATPlite luminescence, 48 h; series mostly up to 57.5 µM
Method in brief: as §2

[8] = system: KB-3-1; assay: Cytotoxic Profiling of Annotated Libraries Using Quantitative High-Throughput Screening (AID 1296008); conditions: Five cell lines viability, CellTiter-Glo ATP luminescence, 48-72 h; max response: stronger effect = lower value; also: nearly all actives have a fitted effect of over 60% in size
Method in brief: as §1

[9] = system: NIH3T3; assay: as above; conditions: Five cell lines viability, CellTiter-Glo ATP luminescence, 48-72 h; max response: stronger effect = lower value
Method in brief: as §1

[10] = system: CAOV3; assay: Primary qHTS to identify gynecologic anti-cancer compounds using libraries of approved drugs and bioactive compounds (AID 1345084); conditions: Gynecologic cancer cell panel viability, ATPlite luminescence, 48 h; activity change, negative = cytotoxicity: at 57.5 µM (top of the series); also: nearly all actives have a fitted effect of over 55% in size; as to activity change, negative = cytotoxicity: % is scaled to controls: 0 for no effect and ±100 for the full control effect
Method in brief: as §2

[11] = system: HeLa; assay: as above; conditions: Gynecologic cancer cell panel viability, ATPlite luminescence, 48 h; activity change, negative = cytotoxicity: at 57.5 µM (top of the series)
Method in brief: as §2

[12] = system: PA-1; assay: as above; conditions: Gynecologic cancer cell panel viability, ATPlite luminescence, 48 h; series mostly up to 57.5 µM
Method in brief: as §2

[13] = system: Tov-21-G; assay: as above; conditions: Gynecologic cancer cell panel viability, ATPlite luminescence, 48 h; activity change, negative = cytotoxicity: at 57.5 µM (top of the series) unless noted
Method in brief: as §2

[14] = system: OV90; assay: as above; conditions: Gynecologic cancer cell panel viability, ATPlite luminescence, 48 h; series mostly up to 57.5 µM
Method in brief: as §2

[15] = Primary fluorescence-based thiol-reactive (MSTI) qHTS assay for identification of artifact compounds. (AID 1845221);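 also: thiol-reactive compounds lower the probe fluorescence signal; nearly all actives have a fitted effect of over 65% in size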
Method in brief: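 Compounds were incubated 1 h at room temperature in the dark with the MSTI probe (4 uM) in PBS pH 7.4, 2% DMSO. Signals were normalized between Acetyl-MSTI and MSTI.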

[16] = system: C33A; assay: Primary qHTS to identify gynecologic anti-cancer compounds using libraries of approved drugs and bioactive compounds (AID 1345084); conditions: Gynecologic cancer cell panel viability, ATPlite luminescence, 48 h; series mostly up to 57.5 µM; also: nearly all actives have a fitted effect of over 55% in size; as to activity change, negative = cytotoxicity: % is scaled to controls: 0 for no effect and ±100 for the full control effect
Method in brief: as §2

[17] = system: Es-2; assay: as above; conditions: Gynecologic cancer cell panel viability, ATPlite luminescence, 48 h; series mostly up to 57.5 µM
Method in brief: as §2

[18] = system: Hek293T; assay: as above; conditions: Gynecologic cancer cell panel viability, ATPlite luminescence, 48 h, control line for the selectivity index; activity change, negative = cytotoxicity: at 57.5 µM (top of the series) unless noted
Method in brief: as §2

[19] = qHTS of pediatric cancer cell lines to identify multiple opportunities for drug repurposing: Primary screen for Rh41 cells (AID 1347108); also: nearly all actives have a fitted effect of over 70% in size
Method in brief: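 Phenotypic viability qHTS, 48 h compound exposure, CellTiter-Glo luminescence read-out; multi-concentration dosing so that potency and efficacy derive directly from the primary screen's curves.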
Potency is read from the fitted curve at half-maximal effect; tags tell the direction and shape of the fitted curve.

Chain of UniProt P10635 (P10635 whole entry, looked up): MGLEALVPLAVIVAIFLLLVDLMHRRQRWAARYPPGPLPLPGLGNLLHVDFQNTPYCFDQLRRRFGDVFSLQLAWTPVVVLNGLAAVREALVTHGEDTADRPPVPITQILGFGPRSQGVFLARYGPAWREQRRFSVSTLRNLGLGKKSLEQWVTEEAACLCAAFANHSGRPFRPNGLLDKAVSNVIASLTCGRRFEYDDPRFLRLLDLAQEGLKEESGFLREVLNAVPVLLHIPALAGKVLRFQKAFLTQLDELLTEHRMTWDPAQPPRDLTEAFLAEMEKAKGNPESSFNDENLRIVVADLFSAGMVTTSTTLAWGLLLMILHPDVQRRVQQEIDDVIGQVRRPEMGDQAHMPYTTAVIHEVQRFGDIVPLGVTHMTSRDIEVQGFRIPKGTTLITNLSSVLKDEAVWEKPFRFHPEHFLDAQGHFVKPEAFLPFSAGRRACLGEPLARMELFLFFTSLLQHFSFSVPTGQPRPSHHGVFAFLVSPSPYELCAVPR

OC[C@H]1O[C@@H](Oc2ccc(O)cc2)[C@H](O)[C@@H](O)[C@@H]1O
Potency [1]: inactive | Potency [2]: inactive | Potency [3]: inconclusive: 29.9 µM [inhibitor, single point] | Potency [4]: inconclusive: 29.9 µM [inhibitor, single point] | Potency [5]: inconclusive: 0.841 µM [inhibitor, full curve] | Potency [6]: inactive | Potency [7]: inactive

O=C(O)C1(Cc2cccc(Nc3nccs3)n2)CCC(Oc2cccc(Cl)c2F)CC1 (centres undefined)
Potency [1]: inconclusive: 166 nM [inhibitor, full curve, poor fit] and active: 411 nM | Potency [3]: active: 1.45 µM and inconclusive: 525 nM [inhibitor, full curve, poor fit] | Potency [8]: active: 2.35 µM and inconclusive: 1.46 µM [inhibitor, full curve] | Potency [9]: inconclusive: 9.35 µM [inhibitor, full curve, poor fit] and inconclusive: 5.8 µM [inhibitor, full curve] | Potency [10]: inconclusive: 25.1 µM [cytotoxic, single point] | Potency [6]: inactive | Potency [11]: active: 6.31 µM | Potency [12]: inconclusive: 15.8 µM [cytotoxic, partial curve] | Potency [7]: inconclusive: 28.2 µM [cytotoxic, partial curve, poor fit] | Potency [13]: inconclusive: 17.8 µM [cytotoxic, partial curve, poor fit]

COc1cc(OC)cc(-c2ccc3ncc4ccc(=O)n(-c5ccc(N6CCNCC6)c(C(F)(F)F)c5)c4c3c2)c1
Potency [1]: active: 7.43 µM | Potency [5]: inconclusive: 29.6 µM [inhibitor, single point]

CO[C@@H]1[C@@H](O[C@@H]2O[C@H](C)[C@@H](O[C@H]3C[C@@](C)(O)[C@@H](OC(=O)CC(C)C)[C@H](C)O3)[C@H](N(C)C)[C@H]2O)[C@@H](CC=O)C[C@@H](C)[C@@H](O)/C=C/C=C/C[C@@H](C)OC(=O)C[C@H]1O
Potency [8]: inconclusive: 9.2 µM [inhibitor, partial curve] | max response [8]: inactive: -0.235%

C=C[C@H]1C(O[C@@H]2O[C@H](CO)[C@@H](O)[C@H](O)[C@H]2O)OC=C2C(=O)N3CCc4c([nH]c5ccccc45)[C@H]3C[C@H]21 (some centres undefined)
Potency [3]: inactive | Potency [4]: inactive | max response [5]: inactive: 2.83% | Potency [14]: inactive

Cc1ccc(NC(=O)C(C)C)cc1C1CCN(Cc2ccc(Oc3ccc(F)c(F)c3)cc2)CC1
Potency [1]: inconclusive: 20.6 µM [inhibitor, partial curve, poor fit] | Potency [15]: inconclusive: 37.7 µM [inhibitor, single point] | Potency [5]: inconclusive: 29.1 µM [inhibitor, single point] | Potency [16]: inconclusive: 25.1 µM [cytotoxic, partial curve, poor fit] | Potency [10]: inconclusive: 39.8 µM [cytotoxic, single point] | Potency [6]: inactive | Potency [17]: inconclusive: 39.8 µM [cytotoxic, single point] | Potency [18]: inconclusive: 25.1 µM [cytotoxic, single point] | Potency [14]: inconclusive: 39.8 µM [cytotoxic, single point] | Potency [12]: inconclusive: 14.1 µM [cytotoxic, partial curve, poor fit] | Potency [7]: inconclusive: 39.8 µM [cytotoxic, single point] | Potency [13]: inconclusive: 28.2 µM [cytotoxic, single point]

FC(F)(F)c1ccc(CNc2ccc(Cc3c[nH]c4ncc(Cl)cc34)cn2)cn1
Potency [1]: active: 14.6 µM | Potency [3]: inconclusive: 29.1 µM [inhibitor, single point] and inconclusive: 26.3 µM [inhibitor, partial curve] | Potency [4]: inconclusive: 18.4 µM [inhibitor, single point] and inconclusive: 18.6 µM [inhibitor, partial curve] | Potency [5]: inconclusive: 37.1 µM [inhibitor, single point] | Potency [9]: inconclusive: 33.1 µM [inhibitor, single point]

CC/C=C/C(O)C(O)C1=C(C)C(=O)C2(O1)C(=O)NC(OC)(C(=O)c1ccccc1)C2O (centres undefined)
Potency [3]: inactive | Potency [15]: inconclusive: 5.19 µM [inhibitor, partial curve, poor fit] | max response [5]: inactive: -3.32% | outcome [9]: inactive

Cc1ccc([N+](=O)[O-])cc1S(=O)(=O)N(C)N=Cc1cnc2ccc(Br)cn12
Potency [19]: active: 0.0662 µM | Potency [5]: inconclusive: 0.0662 µM [inhibitor, full curve]

C[N+]1(C)[C@@H]2CC(OC(=O)C(O)(c3cccs3)c3cccs3)C[C@H]1[C@@H]1O[C@@H]12 (some centres undefined)
max response [8]: inactive: -8.8%

Cc1c(-c2ccnn2C)cc(C(=O)NCc2ccc(S(C)(=O)=O)cn2)c(=O)n1-c1cccc(C(F)(F)F)c1
Potency [2]: inactive | max response [8]: inactive: 2.1% and inactive: 7.91% | outcome [8]: inactive | Potency [9]: inconclusive: 9.2 µM [inhibitor, partial curve, poor fit] | Potency [6]: inconclusive: 1.58 µM [cytotoxic, single point] | Potency [11]: inactive | Potency [7]: inconclusive: 4.47 µM [rising, single point]

Nc1nc(-n2cc(C(=O)O)c(=O)c3cc(F)c(N4CC(O)C4)c(Cl)c32)c(F)cc1F
Potency [15]: inconclusive: 18.5 µM [inhibitor, single point] | Potency [5]: inconclusive: 4.53 µM [inhibitor, single point] | max response [9]: inactive: 2.73%

O=c1[nH]ccc2cc(OC3CCNCC3)ccc12
Potency [2]: inconclusive: 21.3 µM [inhibitor, partial curve, poor fit] | Potency [3]: inconclusive: 20.5 µM [inhibitor, partial curve, poor fit] | Potency [4]: inconclusive: 18.3 µM [inhibitor, single point] | Potency [5]: inconclusive: 4.11 µM [inhibitor, full curve] | Potency [9]: inconclusive: 18.4 µM [inhibitor, single point]
